Results on 106 molecules are retold here after PubChem BioAssay AID434955 (Southern Research Specialized Biocontainment Screening …, 2010).

The other results are listed elsewhere or left out. Further columns of the screen follow, without active or inactive calls. Compounds called inactive in the main read-out are mostly missing here.

The inhibition is the relative decrease from the control value, in per cent.

The assay can be described thus: beta-lactam sensitization of Mtb H37Rv, H37Rv (AID 434955).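 Also: growth measured after seven days incubation then overnight dye step; 0% = bacteria only wells and 100% = bacteria with antibiotic.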 The conditions noted are these: M. tuberculosis H37Rv growth with meropenem, percent inhibition; measured here: primary screen without meropenem; at 25 µM.
Take `CC(=O)Nc1ccc(C(=O)NC(C)c2ccc(-n3ccnc3)cc2)cc1` (stereo unspecified): the inhibition was -1.32%.

On to `CC(C)(C)c1ccc(OCC(=O)N/N=C/c2cc(Br)ccc2OC(=O)c2ccco2)cc1`, for which the inhibition came out at 2.71%.

Take `O=C(CSc1nnc(CNC(=O)c2ccccc2)o1)c1ccccc1`: the inhibition amounted to 5.12%.

Regarding `CCOC(=O)c1cn(CC(=O)Nc2ccc(CC)cc2)nn1`, the inhibition was 3.31%.

For the molecule `Clc1ccc(Cl)c2sc(N3CCCC3)nc12`, the inhibition is 7.83%.

As to `Nc1nc(NCCc2ccccc2)nc(NCc2ccccc2)c1[N+](=O)[O-]`, the inhibition came out at 3.69%.

For the molecule `CN1CCN(c2oc(-c3ccccc3F)nc2S(=O)(=O)c2ccc(Cl)cc2)CC1`, the inhibition was found to be 18.2%.

With `Cc1c(NC(=O)Nc2ccccc2)cccc1[N+](=O)[O-]`, the inhibition is -7.43%.

As for `COc1cccc(N2C(=O)CC(N3CCC(C(N)=O)(N4CCCCC4)CC3)C2=O)c1` (stereo unspecified), the inhibition is -11.2%.

For `Cc1ccc(C)c(N2CCN(CC3CC=CCC3)CC2)c1` (stereo unspecified), the inhibition is -2.1%.

As for `O=C(NC(=S)Nc1ccc(Cl)cc1Cl)C1CC1`, the inhibition worked out at 14.3%.

On to `COCCn1c(COc2cccc(OC)c2)nnc1SCC(=O)N1CCOCC1`, for which the inhibition was -3.74%.

On to `S=C(Nc1ccc(Cl)cc1)c1nc2ccccc2s1`, for which the inhibition came out at 40.5%.

For the molecule `O=C(COC(=O)Cc1ccc(S(=O)(=O)N2CCCCC2)s1)Nc1ccc2c(c1)OCO2`, the inhibition was determined as 32.2%.

`CC1CCC(NC(=O)CCS(=O)(=O)c2ccc3c(c2)CCN3C(=O)C2CC2)CC1` (stereo unspecified): the inhibition was -2.67%.

On to `CC(=O)c1ccc(OCCCC(=O)Nc2cc(Cl)ccc2-n2cncn2)cc1`, for which the inhibition is 4.54%.

For `Cc1ccc(CSc2nnc(-c3ccncc3)n2CC2CCCO2)cc1` (stereo unspecified), the inhibition stood at 1.32%.

Take `CCCOc1ccc(-c2nnn(CC(=O)OCC)n2)cc1`: the inhibition came out at 96.5%.

For `CCc1ccc(-c2nc(CN3CCC(C(=O)NCCc4ccc(OC)c(OC)c4)CC3)c(C)o2)cc1`, the inhibition came out at 98.1%.

For the molecule `Cc1ccc(CN2CCCCC2C(=O)Nc2ccc(Oc3cccnc3)cc2)o1` (stereo unspecified), the inhibition was -1.87%.

Turning to `COC(=O)c1ccc(COc2ncnc3c(Cl)cc(Cl)cc23)o1`, the inhibition is -5.9%.

For `C/C(=N\NC(=O)c1cccc(Cl)c1)c1cccc(NC(=O)C(C)C)c1`, the inhibition is -2.79%.

Take `CC(=O)Nc1ccc(C(=O)NCC2(N3CCCCC3)CCCCC2)cc1`: the inhibition was -11.9%.

For `CCC(C)c1ccccc1OCCn1ccnc1` (stereo unspecified), the inhibition was determined as 8.01%.

Turning to `CC(Oc1ccccc1F)C(=O)NC1CCS(=O)(=O)C1` (stereo unspecified), the inhibition is -3.29%.

Regarding `CC(=O)[C@@H]1[C@@H]2C(=O)N(c3ccc(F)c(Cl)c3)C(=O)[C@@H]2C2c3ccccc3C=CN21` (stereo partly specified), the inhibition is -1.71%.

On to `COc1ccc(S(=O)(=O)NCCC(=O)NCc2ccc(F)cc2)cc1`, for which the inhibition is -8.27%.

In the case of `CC(C)(C)C(=O)Nc1ccnn1C1CCN(C(=O)c2ccc(Cl)cc2F)CC1`, the inhibition was -1%.

As to `O=C(NCc1ccc(Cl)cc1)c1ccc(CNc2c(N3CCOCC3)c(=O)c2=O)cc1`, the inhibition was 11%.

In the case of `O=C(Cc1ccc(S(=O)(=O)N2CCOCC2)s1)Nc1ccccc1N1CCCC1`, the inhibition is -3.3%.

With `O=C(Nc1ccc2c(c1)oc1ccccc12)c1ccncc1`, the inhibition is -0.56%.

Turning to `CCc1cccc(NC(=O)Cn2cc3c(n2)CCCC3)c1`, the inhibition is -6.49%.

Turning to `C=CCNC(=O)C1CC(=O)N(c2ccc(OCC(=O)Nc3ccc(OC)cc3)cc2)C1` (stereo unspecified), the inhibition amounted to 0.39%.

On to `Cc1ccc2c(CN3CCCCC3C)cc(=O)oc2c1` (stereo unspecified), for which the inhibition is -1.56%.

In the case of `CCOC(=O)CNC(=O)CSP(=S)(OCC)OCC`, the inhibition was -0.02%.

For `COC(=O)c1nc(NC(=S)NC(=O)c2cccs2)sc1C`, the inhibition is -1.39%.

On to `Cc1cc(NC(=O)c2ccc3c(c2)C(=O)N(c2cccc(C)c2C)C3=O)no1`, for which the inhibition worked out at 2.26%.

Take `O=C(Nc1ccccc1F)c1ccc2snnc2c1`: the inhibition is -9.26%.

For `O=[N+]([O-])c1ccc(Nc2nc(N/N=C/c3cccc(F)c3)nc(N3CCCC3)n2)cc1`, the inhibition came to 45.7%.

With `COc1ccc(-c2c(-c3ccsc3)oc(=O)c3cc(OC)c(OC)cc23)cc1`, the inhibition is 73.6%.

For the molecule `COc1cccc(C2CC(c3ccc(F)cc3)Nc3nc(N)nn32)c1` (stereo unspecified), the inhibition was -6.39%.

Take `NC(=O)CC(NC(=O)Cc1ccc(Br)cc1)c1ccc(NC2CCCCCC2)c([N+](=O)[O-])c1` (stereo unspecified): the inhibition stood at 16.5%.

As to `O=C1CCCN1CCCNc1ccc(S(=O)(=O)N2CCCCC2)cn1`, the inhibition was -8.75%.

On to `O=C(N1CCOCC1)N1CCCC(c2nc(-c3cccs3)no2)C1` (stereo unspecified), for which the inhibition stood at 1.75%.

`CN1CCN(C(=O)N2CCNC2=O)CC1`: the inhibition was -3.9%.

Turning to `COc1ccc(OCc2cc(C(=O)NCc3cccc(C)n3)no2)c(Cl)c1`, the inhibition was -0.45%.

Take `COc1ccccc1NS(=O)(=O)c1cccc(N2CC(O)=C(c3ccccc3)C2=N)c1`: the inhibition was -7.17%.

With `CNC(=O)C1CCN(S(=O)(=O)c2c(C)noc2/C=C/c2cccc(OC)c2)CC1`, the inhibition is -7.94%.

With `COc1ccc2oc(C(=O)OCC(=O)N3C(C)CCCC3C)c(C)c2c1` (stereo unspecified), the inhibition is -4.54%.

With `COc1cc2[nH]c(=O)n(Cc3ccc(C(=O)NCCCN4CCC(C)CC4)cc3)c(=O)c2cc1OC`, the inhibition was -2.74%.

Take `Cc1noc(C)c1CSc1nnc2scc(-c3ccc(Cl)cc3)n12`: the inhibition was -2.71%.

On to `CCOC(=O)CSc1nnc(CNC(=O)c2cccs2)n1CCc1ccccc1`, for which the inhibition was 46.3%.

For the molecule `CC1=Nc2ccccc2/C1=C\c1nc(-c2ccc(F)cc2)oc1O`, the inhibition was found to be 40.5%.

For `CCn1ccnc1CN1CCCCC1C(=O)Nc1ccc(Oc2cccnc2)cc1` (stereo unspecified), the inhibition came to 13.6%.

Turning to `CCOc1cccc(/C=N/NC(=O)c2ccc3c(c2)OCCO3)c1O`, the inhibition was found to be 2.81%.

Take `CN(C)C=Nc1ccc2nc3c(cc2c1)[nH]c1ccccc13`: the inhibition is 6.83%.

For the molecule `Cn1c(/C=N/c2nc3ccccc3[nH]2)nc2ccccc21`, the inhibition amounted to 43.9%.

With `COc1ccccc1-c1cc(C(=O)Nc2c(C)n(C)n(-c3ccccc3)c2=O)no1`, the inhibition worked out at 22%.

For the molecule `Cc1[nH]c(C)c(S(=O)(=O)NCc2ccc(OC(C)C)cc2)c1C(=O)N1CCCC1`, the inhibition was -0.16%.

As for `O=[N+]([O-])c1ccc(N2CCN(S(=O)(=O)c3ccc(Cl)cc3)CC2)cc1NCC1CCCO1` (stereo unspecified), the inhibition came to 1.97%.

For `Cc1cccc(N2CCN(C(=O)C(C)n3nc(C)n4c(cc5occc54)c3=O)CC2)c1C` (stereo unspecified), the inhibition is 45.2%.

Take `Cc1c(NC(=S)NC(=O)c2cccc3ccccc23)cccc1C(=O)O`: the inhibition was -6.39%.

`Cc1ccc2c(c1)N(CC(=O)NCCCN1CC(C)CC(C)C1)C(=O)c1cccnc1O2` (stereo unspecified): the inhibition was -15.7%.

With `Cn1cnnc1SCC(=O)NC1CCCN(Cc2ccc(Cl)cc2)C1` (stereo unspecified), the inhibition was -0.97%.

Turning to `CCOC(=O)C1CCCN(C(=O)c2cc3c(C)nc4ccccc4c3o2)C1` (stereo unspecified), the inhibition was determined as 2.86%.

Regarding `CN(CCc1ccccn1)C(=O)CN(C)S(=O)(=O)c1ccc2c(c1)c(=O)n(C)c(=O)n2C`, the inhibition turned out to be 4.97%.

Consider `Cc1ccc(SCC(=O)O/N=C(\N)c2ccncc2)cc1`, for which the inhibition is 8.12%.

Turning to `CCCCN(CC)CCCNC(=O)CS(=O)(=O)Cc1nc(-c2cccc(OC)c2)oc1C`, the inhibition is -8.41%.

For `CCOC(=O)c1sc(NC(=O)/C=C/c2cnn(C)c2C)c(C(=O)OCC)c1C`, the inhibition is -7.65%.

As for `Cc1c(NC(=O)/C(C#N)=C/c2ccc(-c3cccc(Cl)c3)o2)c(=O)n(-c2ccccc2)n1C`, the inhibition is -4.17%.

Regarding `O=C(NC(=O)c1ccccc1Cl)C(=O)Nc1ccc(Cl)cc1`, the inhibition is -6%.

On to `CC1(c2ccc3c(c2)OCO3)NC(=O)N(CC(=O)NCCC2=CCCCC2)C1=O` (stereo unspecified), for which the inhibition was 5.9%.

`COc1ccc(/C=N/NC(=O)C(=O)N2CCCCCC2)cc1O`: the inhibition was 5.18%.

In the case of `COc1ccc(-n2ncc3c(NCc4ccccn4)ncnc32)cc1`, the inhibition is -8.18%.

In the case of `CCC(=O)Nc1cccc(-c2ccc(N3CCCCC3)nn2)c1`, the inhibition was 2.67%.

As to `CCCN1C(=O)S/C(=C\c2ccc(N3CCOCC3)o2)C1=O`, the inhibition came to 95.3%.

With `COc1cc(OC)c(C(=O)Nc2cccc3ccccc23)cc1OC`, the inhibition came to 17.5%.

Take `CCOc1ccc(NC(=S)Nc2cccnc2)cc1`: the inhibition is 3.26%.

In the case of `CNC(=O)c1c(NC(=O)c2ccc(S(=O)(=O)N3CCCCC3)cc2)sc2c1CCN(C(C)C)C2`, the inhibition was 7.55%.

With `CC(C)Cc1ccc(CN2CCCC(NC(=O)CCN3CCCO3)C2)cc1` (stereo unspecified), the inhibition came to 7.09%.

Turning to `CC(C(=O)Nc1ccc2c(c1)OCCO2)N1Cc2ccccc2C1=O` (stereo unspecified), the inhibition turned out to be 0.66%.

`CCCNc1c(NC(=O)C2CCC(C)CC2)c(=O)oc2ccccc12` (stereo unspecified): the inhibition is -0.01%.

As for `CCCSCCCNC(=O)Cn1cc2c(n1)CCC(C)C2` (stereo unspecified), the inhibition stood at 2.95%.

Consider `NNC(=O)c1cccc(O)c1`, for which the inhibition is 22.4%.

Regarding `O=C1[C@@H]2Cc3c([nH]c4ccccc34)C(c3cccc(Br)c3)N2C(=O)CN1C1CCN(Cc2ccccc2)CC1` (stereo partly specified), the inhibition turned out to be 96.2%.

Take `CCc1nnc(NC(=O)CSc2nnc(-c3ccco3)n2CC)s1`: the inhibition is -6.51%.

`CN(Cc1ccccn1)C(=O)c1ccc2nc(Cc3cccc(Cl)c3)oc2c1`: the inhibition is 12.1%.

Consider `Cc1cc(NC(=O)c2ccc(C)o2)no1`, for which the inhibition was determined as 10.6%.

On to `C/C(CC1CC(COCCC(C)C)OC1=O)=N\NC(N)=S` (stereo unspecified), for which the inhibition is -3.4%.

With `OCCN1CCN(CC(O)COC(c2ccc(F)cc2)c2ccc(F)cc2)CC1` (stereo unspecified), the inhibition came out at 4.14%.

With `CC(C)C(NC(=O)C1CCCCC1)C(=O)N1CCN(c2ccc(F)cc2)CC1` (stereo unspecified), the inhibition is -4.19%.

Regarding `O=C(Nc1cccc(C(F)(F)F)c1)/C(=C\c1ccco1)NC(=O)c1cccs1`, the inhibition was -12.3%.

For `COc1cccc(/C=N/n2c(COc3ccccc3)n[nH]c2=S)c1OC`, the inhibition came out at 4.27%.

As to `Cn1c(CCN2CCOCC2)nc2cc(NC(=O)c3cccs3)ccc21`, the inhibition was -6.62%.

Consider `Cc1nn(C)c(C(=O)Nc2cccc(Nc3ccccc3)c2)c1[N+](=O)[O-]`, for which the inhibition stood at 6.99%.

Take `CCOC(=O)c1[nH]c(C)c(C(=O)NC2CCCC2)c1C`: the inhibition was -18%.

In the case of `O=C(OC(C(=O)Nc1ccc(Cl)cc1C(F)(F)F)c1ccccc1)C1=COCCO1` (stereo unspecified), the inhibition turned out to be 17.4%.

For `O=C(CSc1ccc2nnc(-c3cccnc3)n2n1)Nc1ccccc1`, the inhibition was determined as 2.32%.

With `O=C(c1cc(-c2ccccc2)n[nH]1)N1CCN(S(=O)(=O)c2ccccc2)CC1`, the inhibition was -12.3%.

With `COc1ccc(-n2ncc3c(=O)n(CC(=O)OCc4ccccc4)cnc32)cc1`, the inhibition is 7.64%.

Turning to `Cc1cc(S(=O)(=O)NC2CCCCC2)ccc1OCC(=O)N1CCOCC1`, the inhibition stood at 13.4%.

Consider `O=C(CN1CCN(c2ccccn2)CC1)Nc1ccc(Cl)c(C(F)(F)F)c1`, for which the inhibition was determined as 33%.

In the case of `CCOc1ccc(-c2cc(CCCC(=O)NCCCOC)no2)cc1`, the inhibition is -1.18%.

`CN(C)C1=C(Cl)C(=O)N(c2ccc(Cl)c(Cl)c2)C1=O`: the inhibition is 50.4%.

In the case of `COc1ccc(NC(=O)CSc2nnc(C)c3ccccc23)cc1`, the inhibition was -2.04%.

As for `Cc1cc(=O)oc2cc(O[C@@H]3O[C@H](CO)[C@@H](O)[C@H](O)[C@H]3O)ccc12`, the inhibition came to 6.57%.
